Reference: the supplement of paper PMC4604168 (melanoma cell lines)
The list shows a part of the results. Single values are uncertain, as repeats are few or missing.

Tests used:
Assay in all cases: cell count relative to DMSO control; melanoma cells; higher = more viable cells
Conditions in all cases: library dose: low library concentration; 72 h
WM115 = tested on: WM115
WM1716 = tested on: WM1716
WM1745 = tested on: WM1745
WM3526 = tested on: WM3526
WM3619 = tested on: WM3619
WM451Lu = tested on: WM451Lu
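Note: cell number obtained by counting DAPI-stained nuclei in high-throughput microscope images with image analysis software, screen run in 1,536-well plates.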

| Compound | cell count (WM115) [%] | cell count (WM1716) [%] | cell count (WM1745) [%] | cell count (WM3526) [%] | cell count (WM3619) [%] | cell count (WM451Lu) [%] |
| --- | --- | --- | --- | --- | --- | --- |
| Cn1c(Nc2ccc(C(F)(F)F)cc2)nc2cc(Oc3ccnc(-c4ncc(C(F)(F)F)[nH]4)c3)ccc21 + CN(C)S(=O)(=O)c1ccc2c(c1)/C(=C/c1cc3c([nH]1)CCCC3)C(=O)N2 [SU6656] (first compound 0.08 µM, partner dose 0.4 µM) | 29.5 | 75 | 62.8 | 47.1 | 66.4 | 95.7 |
| Cn1c(Nc2ccc(C(F)(F)F)cc2)nc2cc(Oc3ccnc(-c4ncc(C(F)(F)F)[nH]4)c3)ccc21 + COc1ccc(COc2ccc(Cc3cnc(N)nc3N)cc2OC)cc1 [GW2580] (first compound 0.08 µM, partner dose 1 µM) | 67.8 | 75 | 79.9 | 54.5 | 69.4 | 88.4 |
| Clc1ccc(Nc2nnc(Cc3ccncc3)c3ccccc23)cc1 [vatalanib] + Cc1cc([N+](=O)[O-])ccc1NS(=O)(=O)c1cc(Cl)ccc1Cl [FH535] (first compound 2 µM, partner dose 1 µM) | 93.3 | 95.2 | 91.3 | 77.8 | 95.9 | 108 |
| Cn1c(Nc2ccc(C(F)(F)F)cc2)nc2cc(Oc3ccnc(-c4ncc(C(F)(F)F)[nH]4)c3)ccc21 + Cc1cc([N+](=O)[O-])ccc1NS(=O)(=O)c1cc(Cl)ccc1Cl [FH535] (first compound 0.08 µM, partner dose 1 µM) | 29 | 74.4 | 77.3 | 42 | 79.1 | 80.4 |
| C#Cc1cccc(Nc2ncnc3cc(OCCOC)c(OCCOC)cc23)c1 [erlotinib] + O=C1NC(=O)/C(=C/c2ccc(-c3ccc(F)cc3O)o2)S1 [AS252424] (first compound 0.8 µM, partner dose 1 µM) | 98.7 | 98.8 | 79.9 | 90.9 | 83.5 | 95.5 |
| Clc1ccc(Nc2nnc(Cc3ccncc3)c3ccccc23)cc1 [vatalanib] + Cn1cc(/C=C2\C(=O)Nc3cccnc32)c2ccccc21 [GW441756] (first compound 2 µM, partner dose 0.4 µM) | 87.5 | 98.6 | 86.3 | 110 | 112 | 98.5 |
| Nc1cccc2c1CN(C1CCC(=O)NC1=O)C2=O (configuration not stated) [lenalidomide] + CC(C)CCN1c2nc(Nc3cc(F)c(O)c(F)c3)ncc2N(C)C(=O)C1C [BID1870] (first compound 1 µM, partner dose 0.2 µM) | 99.1 | 100 | 105 | 78.4 | 116 | 103 |
| Clc1ccc(Nc2nnc(Cc3ccncc3)c3ccccc23)cc1 [vatalanib] + Cc1ccc(NC(=O)c2cccc(N(C)C)c2)cc1NC(=O)c1ccc(O)cc1 [ZM336372] (first compound 2 µM, partner dose 2 µM) | 110 | 113 | 86.1 | 113 | 82.3 | 106 |
| Nc1cccc2c1CN(C1CCC(=O)NC1=O)C2=O (configuration not stated) [lenalidomide] + NCC(=O)Nc1ccc(-n2nc(C(F)(F)F)cc2-c2ccc3c(ccc4ccccc43)c2)cc1 [OSU03012] (first compound 1 µM, partner dose 1 µM) | 87.9 | 90.2 | 86.2 | 47.7 | 112 | 71.7 |
| O=C(CCCCCCC(=O)Nc1ccccc1)NO [vorinostat] + CCN(CC)CCCCNc1ncc2cc(-c3cc(OC)cc(OC)c3)c(NC(=O)NC(C)(C)C)nc2n1 [PD173074] (first compound 0.08 µM, partner dose 0.1 µM) | 107 | 102 | 102 | 101 | 89.1 | 116 |
| Clc1ccc(Nc2nnc(Cc3ccncc3)c3ccccc23)cc1 [vatalanib] + N#Cc1c(O)c2c(-c3ccc(-c4ccccc4O)cc3)csc2[nH]c1=O [A769662] (first compound 2 µM, partner dose 2 µM) | 103 | 92.6 | 89.4 | 91.1 | 85.6 | 57.4 |
| O=C(CCCCCCC(=O)Nc1ccccc1)NO [vorinostat] + CCCCCCCCCCCC1=C(O)C(=O)C=C(O)C1=O [Embelin] (first compound 0.08 µM, partner dose 1.2 µM) | 108 | 103 | 90.4 | 99.4 | 116 | 101 |
| Clc1ccc(Nc2nnc(Cc3ccncc3)c3ccccc23)cc1 [vatalanib] + C[C@]1(c2nc3c(C(N)=O)cccc3[nH]2)CCCN1 [Veliparib] (first compound 2 µM, partner dose 1.4 µM) | 91.9 | 95.9 | 97.4 | 91.2 | 74.9 | 113 |
| COCC[n+]1c2c(n(Cc3cnccn3)c1C)C(=O)c1ccccc1C2=O + CCCCCCCCCCCC1=C(O)C(=O)C=C(O)C1=O [Embelin] (first compound 0.0004 µM, partner dose 1.2 µM) | 96.8 | 97.5 | 93.9 | 91.7 | 120 | 95.6 |
| COCC[n+]1c2c(n(Cc3cnccn3)c1C)C(=O)c1ccccc1C2=O + CN(C)S(=O)(=O)c1ccc2c(c1)/C(=C/c1cc3c([nH]1)CCCC3)C(=O)N2 [SU6656] (first compound 0.0004 µM, partner dose 0.4 µM) | 87.3 | 89.9 | 92.5 | 108 | 97.8 | 67.4 |
| C#Cc1cccc(Nc2ncnc3cc(OCCOC)c(OCCOC)cc23)c1 [erlotinib] + NCC(=O)Nc1ccc(-n2nc(C(F)(F)F)cc2-c2ccc3c(ccc4ccccc43)c2)cc1 [OSU03012] (first compound 0.8 µM, partner dose 1 µM) | 95.8 | 82.4 | 75 | 59.2 | 119 | 57.5 |
| OCc1c[nH]c2ccccc12 [Indole-3-carbinol] + COc1cc(N2CCC(N3CCN(C)CC3)CC2)ccc1Nc1ncc(Cl)c(Nc2ccccc2S(=O)(=O)C(C)C)n1 [NVP-TAE684] (first compound 0.8 µM, partner dose 0.08 µM) | 84.4 | 98.4 | 80.8 | 87.4 | 58.3 | 82.6 |
| O=C(CCCCCCC(=O)Nc1ccccc1)NO [vorinostat] + c1cc(-c2cnn3cc(-c4ccc(OCCN5CCCCC5)cc4)cnc23)ccn1 [Dorsomorphin] (first compound 0.08 µM, partner dose 0.4 µM) | 89.8 | 122 | 101 | 83.1 | 94.4 | 91.5 |
| Nc1cccc2c1CN(C1CCC(=O)NC1=O)C2=O (configuration not stated) [lenalidomide] + NC(=O)Nc1cc(-c2cccc(F)c2)sc1C(=O)N[C@H]1CCCNC1 [AZD7762] (first compound 1 µM, partner dose 0.02 µM) | 85.6 | 86.7 | 92.9 | 92.6 | 74.3 | 98.4 |
| OCc1c[nH]c2ccccc12 [Indole-3-carbinol] + O=C(CCCCCCC(=O)Nc1ccccc1)NO [vorinostat] (first compound 0.8 µM, partner dose 0.08 µM) | 98.6 | 100 | 97.4 | 152 | 85 | 92.8 |
| Nc1cccc2c1CN(C1CCC(=O)NC1=O)C2=O (configuration not stated) [lenalidomide] + c1cc(-c2cnn3cc(-c4ccc(OCCN5CCCCC5)cc4)cnc23)ccn1 [Dorsomorphin] (first compound 1 µM, partner dose 0.4 µM) | 107 | 98.7 | 93.3 | 113 | 122 | 111 |
| COCC[n+]1c2c(n(Cc3cnccn3)c1C)C(=O)c1ccccc1C2=O + Cc1ccc(NC(=O)c2cccc(N(C)C)c2)cc1NC(=O)c1ccc(O)cc1 [ZM336372] (first compound 0.0004 µM, partner dose 2 µM) | 103 | 95.1 | 90.7 | 84.2 | 113 | 46.5 |
| O=C(CCCCCCC(=O)Nc1ccccc1)NO [vorinostat] + COc1ccc(-c2ccc3c(N4CCOCC4)nc(N4C[C@@H](C)O[C@@H](C)C4)nc3n2)cc1CO [KU0063794] (first compound 0.08 µM, partner dose 0.02 µM) | 93.6 | 111 | 89.9 | 129 | 100 | 105 |
| O=C(CCCCCCC(=O)Nc1ccccc1)NO [vorinostat] + CCc1ccc(CCOc2ccc(CC3SC(=O)NC3=O)cc2)nc1 [pioglitazone] (first compound 0.08 µM, partner dose 2 µM) | 92.8 | 99.5 | 103 | 96.2 | 90.8 | 91.7 |
| COCC[n+]1c2c(n(Cc3cnccn3)c1C)C(=O)c1ccccc1C2=O + COc1cc2c(Oc3ccc4[nH]c(C)cc4c3F)ncnc2cc1OCCCN1CCCC1 [cediranib] (first compound 0.0004 µM, partner dose 0.4 µM) | 104 | 87.7 | 107 | 88.6 | 88.3 | 56.2 |
| O=C(CCCCCCC(=O)Nc1ccccc1)NO [vorinostat] + COc1ccc(COc2ccc(Cc3cnc(N)nc3N)cc2OC)cc1 [GW2580] (first compound 0.08 µM, partner dose 1 µM) | 99.2 | 126 | 120 | 104 | 118 | 129 |
| OCc1c[nH]c2ccccc12 [Indole-3-carbinol] + Cn1c(Nc2ccc(C(F)(F)F)cc2)nc2cc(Oc3ccnc(-c4ncc(C(F)(F)F)[nH]4)c3)ccc21 [CHIR265] (first compound 0.8 µM, partner dose 0.08 µM) | 71.8 | 80.9 | 71.9 | 71 | 50.4 | 89.7 |
